The values that follow come from patent US20240076343A1.

Assay [1] addresses intermediate affinity hIL-2 receptor complex (IL-2Rβγ) on TF1+IL-2Rβ cells (human) (UniProt P14784). Description: cell-based or functional assay.
Assay [2] concerns the target high-affinity hIL-2 receptor (IL-2Rαβγ) on NK-92 cells (human) (UniProt P01589). Description: cell-based or functional assay.
UniProt P01589, sequence (P01589 22-272, chain 1 of 3): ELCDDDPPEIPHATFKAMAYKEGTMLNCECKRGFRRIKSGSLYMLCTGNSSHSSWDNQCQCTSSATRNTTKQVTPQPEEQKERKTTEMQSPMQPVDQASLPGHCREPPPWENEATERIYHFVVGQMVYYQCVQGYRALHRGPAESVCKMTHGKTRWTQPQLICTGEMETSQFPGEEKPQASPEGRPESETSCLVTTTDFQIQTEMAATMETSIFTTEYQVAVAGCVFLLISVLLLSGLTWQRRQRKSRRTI
UniProt P01589, sequence (chain, as listed by the source, chain 2 of 3): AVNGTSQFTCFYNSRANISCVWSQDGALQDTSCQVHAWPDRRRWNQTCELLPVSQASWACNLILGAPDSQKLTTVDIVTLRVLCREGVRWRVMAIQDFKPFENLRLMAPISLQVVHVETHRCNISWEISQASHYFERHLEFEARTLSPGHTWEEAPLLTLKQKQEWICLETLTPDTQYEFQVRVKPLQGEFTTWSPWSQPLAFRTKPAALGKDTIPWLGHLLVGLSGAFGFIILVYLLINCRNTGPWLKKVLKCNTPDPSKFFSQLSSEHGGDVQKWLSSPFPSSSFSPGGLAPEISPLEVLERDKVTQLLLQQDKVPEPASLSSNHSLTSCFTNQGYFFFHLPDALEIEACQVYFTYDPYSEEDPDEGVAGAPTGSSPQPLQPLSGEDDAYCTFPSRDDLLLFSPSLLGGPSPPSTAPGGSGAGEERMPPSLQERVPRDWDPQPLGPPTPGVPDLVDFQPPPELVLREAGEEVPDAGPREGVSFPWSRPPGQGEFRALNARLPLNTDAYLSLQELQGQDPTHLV
UniProt P01589, sequence (chain, as listed by the source, chain 3 of 3): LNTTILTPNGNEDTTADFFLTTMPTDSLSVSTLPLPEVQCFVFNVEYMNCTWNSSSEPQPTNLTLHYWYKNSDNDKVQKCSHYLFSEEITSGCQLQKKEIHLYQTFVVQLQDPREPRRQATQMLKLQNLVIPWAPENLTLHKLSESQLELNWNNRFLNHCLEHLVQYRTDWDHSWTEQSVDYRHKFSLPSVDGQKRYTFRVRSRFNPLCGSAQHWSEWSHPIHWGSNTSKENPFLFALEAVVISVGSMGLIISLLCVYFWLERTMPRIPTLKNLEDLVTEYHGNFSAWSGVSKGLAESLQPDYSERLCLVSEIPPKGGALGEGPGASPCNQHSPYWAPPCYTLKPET

UniProt P14784, sequence (P14784 27-551, chain 1 of 2): as the sequence (chain, as listed by the source, chain 2 of 3) above
UniProt P14784, sequence (chain, as listed by the source, chain 2 of 2): as the sequence (chain, as listed by the source, chain 3 of 3) above

B1: 1H3-hIgG1-L6-hIL-2 (H16Y) (protein)
heavy: EVQLVESGGGLVQPGRSLKLSCAVSGFTFSDYAMAWVRQAPKKGLEWVATISYDGSRTYYRDSVKGRFTISRDNAKITLYLQMDSLRSEDTATYYCARHGSGYFDYWGQGVMVTVSS[not shown - about 450 residues with a human IgG1 Fc and changes]
light: DTVLTQSPALAVSPGERVTISCRASESVRTGVHWYQQKPGQQPKLLIYGASNLESGVPARFSGSGSGTDFTLTIDPVEADDTATYFCQQSWNDPFTFGSGTKLEIKRTVAAPSVFIFPPSDEQLKSGTASVVCLLNNFYPREAKVQWKVDNALQSGNSQESVTEQDSKDSTYSLSSTLTLSKADYEKHKVYACEVTHQGLSSPVTKSFNRGEC
Take B1: the Fold change from hIL-2 (TF1 + IL-2Rβ) in assay [1] is 1 fold. Moreover, the Fold change from hIL-2 (NK-92) in assay [2] turned out to be 1 fold.

B2: 1H3-hIgG1-L6-hIL-2 (I92F) (protein)
heavy: EVQLVESGGGLVQPGRSLKLSCAVSGFTFSDYAMAWVRQAPKKGLEWVATISYDGSRTYYRDSVKGRFTISRDNAKITLYLQMDSLRSEDTATYYCARHGSGYFDYWGQGVMVTVSS[not shown - about 450 residues with a human IgG1 Fc and changes]
light: DTVLTQSPALAVSPGERVTISCRASESVRTGVHWYQQKPGQQPKLLIYGASNLESGVPARFSGSGSGTDFTLTIDPVEADDTATYFCQQSWNDPFTFGSGTKLEIKRTVAAPSVFIFPPSDEQLKSGTASVVCLLNNFYPREAKVQWKVDNALQSGNSQESVTEQDSKDSTYSLSSTLTLSKADYEKHKVYACEVTHQGLSSPVTKSFNRGEC
On to B2, for which the Fold change from hIL-2 (TF1 + IL-2Rβ) in assay [1] is 1 fold. For the same molecule, the Fold change from hIL-2 (NK-92) in assay [2] was determined as 1 fold.

B3: 1H3-hIgG1-L6-hIL-2 (R81A) (protein)
heavy: EVQLVESGGGLVQPGRSLKLSCAVSGFTFSDYAMAWVRQAPKKGLEWVATISYDGSRTYYRDSVKGRFTISRDNAKITLYLQMDSLRSEDTATYYCARHGSGYFDYWGQGVMVTVSS[not shown - about 450 residues with a human IgG1 Fc and changes]
light: DTVLTQSPALAVSPGERVTISCRASESVRTGVHWYQQKPGQQPKLLIYGASNLESGVPARFSGSGSGTDFTLTIDPVEADDTATYFCQQSWNDPFTFGSGTKLEIKRTVAAPSVFIFPPSDEQLKSGTASVVCLLNNFYPREAKVQWKVDNALQSGNSQESVTEQDSKDSTYSLSSTLTLSKADYEKHKVYACEVTHQGLSSPVTKSFNRGEC
Consider B3, for which, in assay [1], the Fold change from hIL-2 (TF1 + IL-2Rβ) is 1 fold. Further, the Fold change from hIL-2 (NK-92) in assay [2] was determined as 1 fold.

B4: 1H3-hIgG1-L6-hIL-2 (D20Y/E95R) (protein)
heavy: EVQLVESGGGLVQPGRSLKLSCAVSGFTFSDYAMAWVRQAPKKGLEWVATISYDGSRTYYRDSVKGRFTISRDNAKITLYLQMDSLRSEDTATYYCARHGSGYFDYWGQGVMVTVSS[not shown - about 450 residues with a human IgG1 Fc and changes]
light: DTVLTQSPALAVSPGERVTISCRASESVRTGVHWYQQKPGQQPKLLIYGASNLESGVPARFSGSGSGTDFTLTIDPVEADDTATYFCQQSWNDPFTFGSGTKLEIKRTVAAPSVFIFPPSDEQLKSGTASVVCLLNNFYPREAKVQWKVDNALQSGNSQESVTEQDSKDSTYSLSSTLTLSKADYEKHKVYACEVTHQGLSSPVTKSFNRGEC
In the case of B4, the Fold change from hIL-2 (TF1 + IL-2Rβ) in assay [1] was 5 fold. The molecule also returned a Fold change from hIL-2 (NK-92) in assay [2] of 12 fold.

B5: 1H3-hIgG1-L6-hIL-2 (I92A) (protein)
heavy: EVQLVESGGGLVQPGRSLKLSCAVSGFTFSDYAMAWVRQAPKKGLEWVATISYDGSRTYYRDSVKGRFTISRDNAKITLYLQMDSLRSEDTATYYCARHGSGYFDYWGQGVMVTVSS[not shown - about 450 residues with a human IgG1 Fc and changes]
light: DTVLTQSPALAVSPGERVTISCRASESVRTGVHWYQQKPGQQPKLLIYGASNLESGVPARFSGSGSGTDFTLTIDPVEADDTATYFCQQSWNDPFTFGSGTKLEIKRTVAAPSVFIFPPSDEQLKSGTASVVCLLNNFYPREAKVQWKVDNALQSGNSQESVTEQDSKDSTYSLSSTLTLSKADYEKHKVYACEVTHQGLSSPVTKSFNRGEC
As to B5, the Fold change from hIL-2 (TF1 + IL-2Rβ) in assay [1] stood at 1 fold. Further, the Fold change from hIL-2 (NK-92) in assay [2] worked out at 1 fold.

B6: 1H3-hIgG1-L6-hIL-2 (F42H/D20A) (protein)
heavy: EVQLVESGGGLVQPGRSLKLSCAVSGFTFSDYAMAWVRQAPKKGLEWVATISYDGSRTYYRDSVKGRFTISRDNAKITLYLQMDSLRSEDTATYYCARHGSGYFDYWGQGVMVTVSS[not shown - about 450 residues with a human IgG1 Fc and changes]
light: DTVLTQSPALAVSPGERVTISCRASESVRTGVHWYQQKPGQQPKLLIYGASNLESGVPARFSGSGSGTDFTLTIDPVEADDTATYFCQQSWNDPFTFGSGTKLEIKRTVAAPSVFIFPPSDEQLKSGTASVVCLLNNFYPREAKVQWKVDNALQSGNSQESVTEQDSKDSTYSLSSTLTLSKADYEKHKVYACEVTHQGLSSPVTKSFNRGEC
As to B6, the Fold change from hIL-2 (TF1 + IL-2Rβ) in assay [1] worked out at 2 fold. Also, the Fold change from hIL-2 (NK-92) in assay [2] was 12 fold.

B7: 1H3-hIgG1-L6-hIL-2 (E95K) (protein)
heavy: EVQLVESGGGLVQPGRSLKLSCAVSGFTFSDYAMAWVRQAPKKGLEWVATISYDGSRTYYRDSVKGRFTISRDNAKITLYLQMDSLRSEDTATYYCARHGSGYFDYWGQGVMVTVSS[not shown - about 450 residues with a human IgG1 Fc and changes]
light: DTVLTQSPALAVSPGERVTISCRASESVRTGVHWYQQKPGQQPKLLIYGASNLESGVPARFSGSGSGTDFTLTIDPVEADDTATYFCQQSWNDPFTFGSGTKLEIKRTVAAPSVFIFPPSDEQLKSGTASVVCLLNNFYPREAKVQWKVDNALQSGNSQESVTEQDSKDSTYSLSSTLTLSKADYEKHKVYACEVTHQGLSSPVTKSFNRGEC
On to B7, for which, in assay [1], the Fold change from hIL-2 (TF1 + IL-2Rβ) amounted to 1 fold. In assay [2], this molecule had a Fold change from hIL-2 (NK-92) of 1 fold.

B8: 1H3-hIgG1-L6-hIL-2 (D20Y/I92R) (protein)
heavy: EVQLVESGGGLVQPGRSLKLSCAVSGFTFSDYAMAWVRQAPKKGLEWVATISYDGSRTYYRDSVKGRFTISRDNAKITLYLQMDSLRSEDTATYYCARHGSGYFDYWGQGVMVTVSS[not shown - about 450 residues with a human IgG1 Fc and changes]
light: DTVLTQSPALAVSPGERVTISCRASESVRTGVHWYQQKPGQQPKLLIYGASNLESGVPARFSGSGSGTDFTLTIDPVEADDTATYFCQQSWNDPFTFGSGTKLEIKRTVAAPSVFIFPPSDEQLKSGTASVVCLLNNFYPREAKVQWKVDNALQSGNSQESVTEQDSKDSTYSLSSTLTLSKADYEKHKVYACEVTHQGLSSPVTKSFNRGEC
In the case of B8, the Fold change from hIL-2 (TF1 + IL-2Rβ) in assay [1] came out at 5 fold. Moreover, the Fold change from hIL-2 (NK-92) in assay [2] stood at 12 fold.

B9: 1H3-hIgG1-L6-hIL-2 (D20Y/E95A) (protein)
heavy: EVQLVESGGGLVQPGRSLKLSCAVSGFTFSDYAMAWVRQAPKKGLEWVATISYDGSRTYYRDSVKGRFTISRDNAKITLYLQMDSLRSEDTATYYCARHGSGYFDYWGQGVMVTVSS[not shown - about 450 residues with a human IgG1 Fc and changes]
light: DTVLTQSPALAVSPGERVTISCRASESVRTGVHWYQQKPGQQPKLLIYGASNLESGVPARFSGSGSGTDFTLTIDPVEADDTATYFCQQSWNDPFTFGSGTKLEIKRTVAAPSVFIFPPSDEQLKSGTASVVCLLNNFYPREAKVQWKVDNALQSGNSQESVTEQDSKDSTYSLSSTLTLSKADYEKHKVYACEVTHQGLSSPVTKSFNRGEC
Turning to B9, the Fold change from hIL-2 (TF1 + IL-2Rβ) in assay [1] amounted to 5 fold. Further, the Fold change from hIL-2 (NK-92) in assay [2] came to 11 fold.

B10: 1H3-hIgG1-L6-hIL-2 (I92E) (protein)
heavy: EVQLVESGGGLVQPGRSLKLSCAVSGFTFSDYAMAWVRQAPKKGLEWVATISYDGSRTYYRDSVKGRFTISRDNAKITLYLQMDSLRSEDTATYYCARHGSGYFDYWGQGVMVTVSS[not shown - about 450 residues with a human IgG1 Fc and changes]
light: DTVLTQSPALAVSPGERVTISCRASESVRTGVHWYQQKPGQQPKLLIYGASNLESGVPARFSGSGSGTDFTLTIDPVEADDTATYFCQQSWNDPFTFGSGTKLEIKRTVAAPSVFIFPPSDEQLKSGTASVVCLLNNFYPREAKVQWKVDNALQSGNSQESVTEQDSKDSTYSLSSTLTLSKADYEKHKVYACEVTHQGLSSPVTKSFNRGEC
In the case of B10, the Fold change from hIL-2 (TF1 + IL-2Rβ) in assay [1] is 1 fold. This molecule returned a Fold change from hIL-2 (NK-92) in assay [2] of 1 fold.

B11: 1H3-hIgG1-L6-hIL-2 (E95A) (protein)
heavy: EVQLVESGGGLVQPGRSLKLSCAVSGFTFSDYAMAWVRQAPKKGLEWVATISYDGSRTYYRDSVKGRFTISRDNAKITLYLQMDSLRSEDTATYYCARHGSGYFDYWGQGVMVTVSS[not shown - about 450 residues with a human IgG1 Fc and changes]
light: DTVLTQSPALAVSPGERVTISCRASESVRTGVHWYQQKPGQQPKLLIYGASNLESGVPARFSGSGSGTDFTLTIDPVEADDTATYFCQQSWNDPFTFGSGTKLEIKRTVAAPSVFIFPPSDEQLKSGTASVVCLLNNFYPREAKVQWKVDNALQSGNSQESVTEQDSKDSTYSLSSTLTLSKADYEKHKVYACEVTHQGLSSPVTKSFNRGEC
B11: the Fold change from hIL-2 (TF1 + IL-2Rβ) in assay [1] was 1 fold. Further, in assay [2], the Fold change from hIL-2 (NK-92) turned out to be 1 fold.

B12: 1H3-hIgG1-L6-hIL-2 (F42R/D20A) (protein)
heavy: EVQLVESGGGLVQPGRSLKLSCAVSGFTFSDYAMAWVRQAPKKGLEWVATISYDGSRTYYRDSVKGRFTISRDNAKITLYLQMDSLRSEDTATYYCARHGSGYFDYWGQGVMVTVSS[not shown - about 450 residues with a human IgG1 Fc and changes]
light: DTVLTQSPALAVSPGERVTISCRASESVRTGVHWYQQKPGQQPKLLIYGASNLESGVPARFSGSGSGTDFTLTIDPVEADDTATYFCQQSWNDPFTFGSGTKLEIKRTVAAPSVFIFPPSDEQLKSGTASVVCLLNNFYPREAKVQWKVDNALQSGNSQESVTEQDSKDSTYSLSSTLTLSKADYEKHKVYACEVTHQGLSSPVTKSFNRGEC
Turning to B12, in assay [1], the Fold change from hIL-2 (TF1 + IL-2Rβ) was determined as 2 fold. In assay [2], this molecule returned a Fold change from hIL-2 (NK-92) of 10 fold.

B13: 1H3-hIgG1-L6-hIL-2 (S87A) (protein)
heavy: EVQLVESGGGLVQPGRSLKLSCAVSGFTFSDYAMAWVRQAPKKGLEWVATISYDGSRTYYRDSVKGRFTISRDNAKITLYLQMDSLRSEDTATYYCARHGSGYFDYWGQGVMVTVSS[not shown - about 450 residues with a human IgG1 Fc and changes]
light: DTVLTQSPALAVSPGERVTISCRASESVRTGVHWYQQKPGQQPKLLIYGASNLESGVPARFSGSGSGTDFTLTIDPVEADDTATYFCQQSWNDPFTFGSGTKLEIKRTVAAPSVFIFPPSDEQLKSGTASVVCLLNNFYPREAKVQWKVDNALQSGNSQESVTEQDSKDSTYSLSSTLTLSKADYEKHKVYACEVTHQGLSSPVTKSFNRGEC
B13: the Fold change from hIL-2 (TF1 + IL-2Rβ) in assay [1] was determined as 1 fold. Further, in assay [2], the Fold change from hIL-2 (NK-92) was determined as 1 fold.
